Drawing on PubChem BioAssay AID485344 (National Center for Advancing Translational Sciences (NCATS), 2010), this text covers inhibition for 96 compounds.

Molecules are shown by their SMILES. In all, about 340,000 compounds went through this assay and about 6,900 (2%) were called active. Cut-off read from the data, not from the text of the source: active = inhibition above about 30%; inactive = below that, where a call was filed. The entries are a selection whose mix differs from that of the whole data set. The source gives no active or inactive call for entries shown without one.

In this assay the target is D(2) dopamine receptor (Homo sapiens) (UniProt P14416). The assay is described as follows: HTS Assay for Allosteric Antagonists of the Human D2 Dopamine Receptor: Primary Screen for Antagonists. Note: 0% is about no effect. Particulars: HEK293 TREx D2 cells, calcium flux, dopamine EC80; at 10 µM; stronger effect = higher value. Put shortly: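 HEK293 T-REx D2 cells, tet-induced, calcium dye no-wash. Cpd pintool add, 180 s kinetic, then EC80 DA, 180 s kinetic. Ca flux read.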
UniProt P14416, sequence (P14416 whole entry, looked up): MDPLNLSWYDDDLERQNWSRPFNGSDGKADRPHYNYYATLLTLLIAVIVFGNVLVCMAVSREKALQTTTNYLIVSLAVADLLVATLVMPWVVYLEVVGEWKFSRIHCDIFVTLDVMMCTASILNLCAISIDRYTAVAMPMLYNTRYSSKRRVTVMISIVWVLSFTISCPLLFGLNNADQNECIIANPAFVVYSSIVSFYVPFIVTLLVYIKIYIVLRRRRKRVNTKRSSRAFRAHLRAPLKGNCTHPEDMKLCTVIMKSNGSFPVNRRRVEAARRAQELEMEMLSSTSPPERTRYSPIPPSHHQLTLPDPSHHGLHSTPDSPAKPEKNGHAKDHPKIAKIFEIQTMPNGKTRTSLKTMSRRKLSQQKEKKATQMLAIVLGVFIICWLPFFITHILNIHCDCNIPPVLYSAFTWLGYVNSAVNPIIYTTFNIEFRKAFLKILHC
For orientation: A change in cytosolic calcium serves as a functional read-out for many receptors and channels.
In general, inhibition refers to the drop in the measured response relative to a control, in per cent. Consider `Cc1ccc(CSc2nc3cccnc3n2Cc2ccc(C(=O)NC3CC3)cc2)cc1`, for which the inhibition was 4.63%. For `Cc1ccc(-n2ncc3c(=O)n(Cc4cccc(Cl)c4)cnc32)cc1C`, the inhibition was -0.6%.

With `CN(CCN1CCc2ccccc2C1)Cc1nc(Cc2ccccc2F)no1`, the inhibition was active: 41%.

For `COc1ccc(C(CNC(=O)C(C)Oc2ccc(Br)cc2)N2CCCCC2)cc1` (stereo unspecified), the inhibition is active: 78.1%. For the compound `COc1ccc(Cn2c(C(=O)O)c(CNCc3ccco3)c3ccc(C)cc32)cc1`, the inhibition amounted to 5.37%.

As to `CCOc1ccccc1CNC(=O)c1cnn(-c2ccc(C)cc2)c1-n1cccc1`, the inhibition was 6.19%. For `Cc1nn(CCC(=O)Nc2ccc(Cl)cc2)c(C)c1S(=O)(=O)N1CCCCC1`, the inhibition is -22.1%. Next, `Cc1cc(-c2ccc(C)c(S(=O)(=O)NCCCN3CCN(c4ccccc4F)CC3)c2)on1`: active: 76%. As for `COc1ccc(-c2cc(C(=O)Nc3cc(C(F)(F)F)ccc3Cl)no2)cc1`, the inhibition was -1.54%. For `COc1ccccc1Cn1cc(C(=O)c2ccccc2)c(=O)c2cc(OC)c(OC)cc21`, the inhibition amounted to 27%. Next, `CCc1ccc(NC(=S)NC2CCN(Cc3ccccc3)CC2)cc1`: active: 98.2%; `CN(C)c1ccc(CNC(=O)C2CCN(c3nnc(-n4cccc4)s3)CC2)cc1`: 6.66%; `CCOc1ccc(C(=O)Nc2ccc(-c3cc4ccccc4oc3=O)cc2)cc1Br`: -15.5%. With `Cc1ccc(Cn2c(CO)cnc2SCc2ccc(F)cc2)cc1`, the inhibition was determined as 20.6%. In the case of `Cc1ccc([N+](=O)[O-])cc1Nc1nc(N2CCCC2)nc(N2CCCC2)n1`, the inhibition is active: 34.5%.

On to `O=C(Nc1ccc(Cl)cc1Cl)c1cc(S(=O)(=O)NCc2ccc3c(c2)OCO3)ccc1F`, for which the inhibition was found to be 4.9%. As for `Cc1ccccc1NC(=O)c1cc2c([nH]c1=O)CC(C)(C)CC2=O`, the inhibition is -12.3%. As for `Cc1nc2c3ccccc3nc(NNC(=O)CCC(=O)O)n2n1`, the inhibition was -5.36%.

For `Cc1ccc(NC(=O)CN2C(=O)CCSc3ccccc32)c(C)c1`, the inhibition worked out at 0.488%. As to `COc1ccc(CCNC(=O)c2ccc3c(c2)nc(C)n3-c2ccc(Br)cc2)cc1OC`, the inhibition was -3.68%.

As for `CN(C1CCCCC1)S(=O)(=O)c1ccc2c(c1)c(=O)c(C(=O)N1CCN(c3ccccc3)CC1)cn2C`, the inhibition was 3.29%. With `O=C(O)c1ccc(NC(=O)c2ccc(Cl)c(S(=O)(=O)N3CCCCCC3)c2)cc1`, the inhibition amounted to 3.8%. On to `O=C(COC(=O)CCc1c[nH]c(=O)[nH]1)Nc1cccc(Cl)c1`, for which the inhibition was active: 35%. On to `O=S(=O)(NCCS(=O)(=O)N1CCN(c2ccccc2)CC1)c1ccccc1`, for which the inhibition was -1.17%. `Cc1ccc(NC(=O)CN2C(=O)C(c3ccccc3)=NC23CCCCC3)cc1C`: the inhibition was -17.9%. Turning to `CCc1ccc2occ(CC(=O)N(Cc3ccccc3)C3CCS(=O)(=O)C3)c2c1` (stereo unspecified), the inhibition was -4.91%. As for `COc1ccc(-n2c(C)nc3c(cnn3-c3ccc(C)c(C)c3)c2=O)cc1Cl`, the inhibition was -3.56%. Next, `CCS(=O)(=O)N1CCCc2cc(C(=O)Nc3cc([N+](=O)[O-])ccc3C)ccc21`: 20.9%.

As for `Cc1ccc(C)c(C(=O)N(Cc2nc(-c3ccc(Cl)cc3)no2)C(C)C)c1`, the inhibition was active: 39.9%. With `CCc1ccc(S(=O)(=O)c2nnn3c2nc(N(C)Cc2ccccc2)c2cc(Cl)ccc23)cc1`, the inhibition was determined as 15.4%.

`COc1cccc(CNC(=O)Cn2c(=O)ccc3cc(S(=O)(=O)N4CCCC4)ccc32)c1`: the inhibition was -0.557%.

In the case of `O=C(NCCc1ccc(Cl)cc1)C1CCN(c2ncccn2)CC1`, the inhibition is active: 60.9%. Regarding `Cc1cc(=O)n(CC(=O)N2CCCCC2)c2c1c(C)nn2C`, the inhibition came out at 4.87%. As to `CCN(CC)CCCNC(=O)c1cn(CC)c2ccc(S(=O)(=O)N3CCC(C)CC3)cc2c1=O`, the inhibition worked out at 2.3%. With `CSc1cccc(-n2nnc(-c3nsc(NC(=O)c4cccs4)n3)c2C)c1`, the inhibition stood at 13.2%. Turning to `COc1ccc(Br)cc1CNC(=O)Cn1nc(C)n2c(cc3cc(F)ccc32)c1=O`, the inhibition was 10.2%.

For the compound `CCOC(=O)c1ccccc1NC(=O)CSc1nc(=O)[nH]c2c1CCCC2`, the inhibition was -24.3%. As for `COc1cc(OC)cc(C(=O)Nc2nc(-c3nnn(-c4ccc(C)cc4)c3C)ns2)c1`, the inhibition amounted to 17%.

Consider `CCOC(=O)C1=C(CN2CCC(C)CC2)NC(=O)NC1c1ccc(OC(C)C)cc1` (stereo unspecified), for which the inhibition was 7.62%. Next, `COc1cc(/C=C(/C#N)c2nc(-c3cc4ccccc4oc3=O)cs2)ccc1O`: -9.21%; `Cc1cccc(NC(=O)CSc2nc3c([nH]c4ccccc43)c(=O)n2-c2cc(C)cc(C)c2)c1`: -16.9%; `Cc1c(Cl)cccc1NC(=O)Nc1c[nH]c(=O)[nH]c1=O`: 2.72%. Take `O=C(COC(=O)c1ccccc1Cl)NC1CCCCCCC1`: the inhibition is active: 40.2%. For the compound `CC1CCCCN1C(=O)CSc1nc(-c2ccccc2)no1` (stereo unspecified), the inhibition was determined as 2.77%. Take `CS(=O)(=O)c1ccc2nc(NC(=O)CN3CCN(Cc4ccccc4)CC3)sc2c1`: the inhibition is active: 44.5%. Consider `O=C(CSc1nccn1Cc1ccc2c(c1)OCO2)Nc1ccccc1F`, for which the inhibition is -16.1%. Turning to `CCCn1c(=O)sc2cc(NC(=O)c3ccccc3Cl)ccc21`, the inhibition stood at 9.28%. As to `COc1cc(NC(=O)CCn2nc(C)cc2C)cc(OC)c1OC`, the inhibition is -5.44%. Take `CCC1CCCCN1CCCNC(=O)c1cn(C)c2ccc(S(=O)(=O)N(C)C3CCCCC3)cc2c1=O` (stereo unspecified): the inhibition is -23.5%. On to `COc1ccc(-c2cc(C(=O)Nc3ccc4c(c3)OCO4)no2)cc1`, for which the inhibition worked out at 15%. Take `COc1cccc(N2CCN(C(=O)c3cccn3-c3nnc(N4CCCCC4)s3)CC2)c1`: the inhibition came out at 8.58%. Take `CCSc1ccccc1C(=O)N1CCN(c2nc3ccccc3s2)CC1`: the inhibition amounted to 16.7%. For the compound `Cc1ccc(C)c(NC(=O)CSc2nc3ccccc3nc2N2CCOCC2)c1`, the inhibition was 2.65%. As to `CC(C)(C)OC(=O)N1CCC(c2c(C(=O)N3CCCCC3)cnn2-c2ccc(F)cc2)CC1`, the inhibition amounted to 19.5%. Next, `COc1cccc(NC(=O)c2oc3ccc(S(=O)(=O)N(C)C4CCCCC4)cc3c2C)c1`: 12.8%; `Nc1c(Cl)c(Cl)nc(C(=O)OCC(=O)NC2CCCCC2)c1Cl`: active: 56.6%; `COC(=O)c1ccc(NC(=O)c2cnn(-c3ccc(Cl)cc3)c2C2CCN(C(=O)OC(C)(C)C)CC2)cc1`: -3.34%.

On to `COc1ccccc1C(=O)Nc1cccc(OCc2cc(=O)n3ccccc3n2)c1`, for which the inhibition worked out at 13.7%. Next, `CCc1nn(CC(=O)NCCc2ccc(Cl)cc2)c(=O)c2cc3c(OC)cccc3n12`: 13.5%. As for `Cc1cc2oc(C(=O)N(Cc3ccc(Cl)cc3)Cc3ccco3)c(C)c2cc1Cl`, the inhibition is -4.79%. Next, `Cc1cc(C)c(NC(=O)c2cc(C)nc3c2c(C)nn3-c2cccc(F)c2)c(C)c1`: 7.15%. For `CCN(CC)C(=O)c1c(NC(=O)c2ccccc2F)sc2c1CCC(C(C)(C)C)C2` (stereo unspecified), the inhibition is 6.39%. For `CCc1ccc(-c2nn(-c3ccc(OC)cc3)c3c2cnc2ccc(OC)cc23)cc1`, the inhibition is -15.8%.

On to `CCc1ccc(NC(=O)C2CCCN(S(=O)(=O)c3ccc4c(c3)oc(=O)n4C)C2)cc1` (stereo unspecified), for which the inhibition was -3.87%.

As to `COCCCNC(=O)CCCn1c(SCC(=O)c2ccc(Br)cc2)nc2c(sc3ccccc32)c1=O`, the inhibition is 22.3%. Consider `Cc1ccc(C(=O)NCC(c2ccc(Cl)cc2)N2CCCCC2)cc1` (stereo unspecified), for which the inhibition is 17.4%.

As to `CCOc1ccc(C(=O)N2CC(=O)Nc3ccc(C)cc3C2c2ccc(F)cc2)cc1OCC` (stereo unspecified), the inhibition was -9.43%. With `CCOc1ccc(-c2nnc(NC(=O)Cc3ccc(OC)cc3)o2)cc1`, the inhibition was active: 35%. With `Cc1ccc(Cl)c2sc(NC(=O)c3ccc(S(=O)(=O)N4CCCC4)cc3)nc12`, the inhibition was -14.7%. `COc1cccc(CNC(=O)c2cccc(N3CCCS3(=O)=O)c2)c1`: the inhibition worked out at 3.02%. Turning to `Cc1cc(Nc2ccccc2C)c2cccc(C)c2n1`, the inhibition came out at 4.26%. Consider `CCC(C)n1c(SCC(=O)Nc2ccccc2C(=O)OC)nc2ccsc2c1=O` (stereo unspecified), for which the inhibition was 0.129%. `O=C(NCc1c(-n2cccc2)sc2c1CCCC2)Nc1cccc(C(F)(F)F)c1`: the inhibition is -8.36%. Regarding `CCN(CC)S(=O)(=O)c1ccc(C(=O)OCn2c(SC)nnc(C)c2=O)cc1`, the inhibition was active: 35.4%. For `CC(=O)c1ccc(N2CCN(C(=O)Nc3ccc(C)cc3)CC2)cc1`, the inhibition was found to be 5.68%.

In the case of `Cc1ccc(Nc2c(-c3ccc(N4CCOCC4)cc3)nc3ccc(C)cn23)cc1`, the inhibition came to 6.93%. `COc1cc(C(=O)Nc2ccc3nc4n(c(=O)c3c2)CCCCC4)cc(OC)c1OC`: the inhibition is -2.38%. In the case of `Cn1c(=O)oc2cc(S(=O)(=O)NC(CC(=O)O)c3cccc(Br)c3)ccc21` (stereo unspecified), the inhibition was 3.73%. Regarding `COc1ccc(NC(=O)CSc2nnc(N)s2)cc1`, the inhibition was -4.5%. Turning to `O=C(Nc1ccc(-c2nc3cc(Cl)ccc3o2)cc1)c1cc(Br)ccc1Cl`, the inhibition came to 3.08%.

In the case of `CCN(C(=O)CSc1nc2ccccc2c2nc(CCn3c(C)nc4ccccc43)nn12)c1cccc(C)c1`, the inhibition was -8.82%. On to `CCN(CC)S(=O)(=O)c1ccc2c(c1)N(CC(=O)N1CCN(c3cccc(C)c3)C(C)C1)C(=O)CO2` (stereo unspecified), for which the inhibition was -9.57%. In the case of `COc1cc(C(=O)NC2(C(F)(F)F)C(=O)NC(C)=C2C#N)cc(OC)c1OC` (stereo unspecified), the inhibition was 1.82%.

`Cc1cccc(NC(=O)CCn2cnnn2)c1`: the inhibition was -13.8%. For `COc1ccc(-c2csc3nc(-c4ccc(Cl)cc4)oc(=O)c23)cc1`, the inhibition was found to be 7.48%. Next, `CCc1cccc(NC(=O)c2cnc(N3CCOCC3)c3ccccc23)c1`: -2.21%; `Cc1c(C(=O)N2CCCC2)oc2c1-c1nn(CC(=O)NCc3ccc(OC(C)C)cc3)cc1CC2`: -7.09%; `CN(CC(=O)Nc1ccc(OC(F)(F)F)cc1)S(=O)(=O)c1ccc2c(c1)CCC(=O)N2`: 10.2%. As for `Cc1ccc2occ(-c3cc(-c4ccccc4)nc4c3COc3ccccc3-4)c(=O)c2c1`, the inhibition came out at 7.61%. Next, `CCOC(=O)c1cc(-c2ccccc2)n(CCCC(=O)Nc2ccc(C)c(Cl)c2)c1C`: 0.79%; `Cc1ccc(C)c(NC(=O)CSc2nc3nccnc3c(=O)n2CCc2c[nH]c3ccccc23)c1`: 21.4%. As to `COc1ccc(N2CC(C(=O)NCCS(=O)(=O)N3CCN(c4ccccc4)CC3)CC2=O)cc1` (stereo unspecified), the inhibition was -6.25%. Next, `CC(C)OCCCNC(=O)c1cn(C)c2ccc(S(=O)(=O)N(C)C3CCCCC3)cc2c1=O`: 10.3%; `CC(C)CCn1nnnc1CN1CCN(c2ccccc2)CC1`: active: 49.9%; `Cc1ccc2c(=O)c(C(=O)c3ccccc3)cn(CC(=O)NCc3ccccc3)c2n1`: -17.9%.

In the case of `CCOc1ccc(NC(=O)CSc2ncc(S(=O)(=O)c3ccc(F)c(C)c3)c(=O)[nH]2)cc1`, the inhibition worked out at 1.49%.
